Data as given in paper PMC4336329 (PLoS ONE, 2015).
In all, about 310,000 compounds went through this assay and about 2,200 (0.71%) showed an effect of 50% or more. Effects have a minus sign here. The list shows a part of the results.

What follows are molecules tested against human ether-à-go-go-related gene (hERG) potassium channel (human, UniProt Q12809) (assay: primary screen, population patch clamp on CHO cells stably expressing hERG).
Sequence of human ether-à-go-go-related gene (hERG) potassium channel (Q12809 whole entry, looked up): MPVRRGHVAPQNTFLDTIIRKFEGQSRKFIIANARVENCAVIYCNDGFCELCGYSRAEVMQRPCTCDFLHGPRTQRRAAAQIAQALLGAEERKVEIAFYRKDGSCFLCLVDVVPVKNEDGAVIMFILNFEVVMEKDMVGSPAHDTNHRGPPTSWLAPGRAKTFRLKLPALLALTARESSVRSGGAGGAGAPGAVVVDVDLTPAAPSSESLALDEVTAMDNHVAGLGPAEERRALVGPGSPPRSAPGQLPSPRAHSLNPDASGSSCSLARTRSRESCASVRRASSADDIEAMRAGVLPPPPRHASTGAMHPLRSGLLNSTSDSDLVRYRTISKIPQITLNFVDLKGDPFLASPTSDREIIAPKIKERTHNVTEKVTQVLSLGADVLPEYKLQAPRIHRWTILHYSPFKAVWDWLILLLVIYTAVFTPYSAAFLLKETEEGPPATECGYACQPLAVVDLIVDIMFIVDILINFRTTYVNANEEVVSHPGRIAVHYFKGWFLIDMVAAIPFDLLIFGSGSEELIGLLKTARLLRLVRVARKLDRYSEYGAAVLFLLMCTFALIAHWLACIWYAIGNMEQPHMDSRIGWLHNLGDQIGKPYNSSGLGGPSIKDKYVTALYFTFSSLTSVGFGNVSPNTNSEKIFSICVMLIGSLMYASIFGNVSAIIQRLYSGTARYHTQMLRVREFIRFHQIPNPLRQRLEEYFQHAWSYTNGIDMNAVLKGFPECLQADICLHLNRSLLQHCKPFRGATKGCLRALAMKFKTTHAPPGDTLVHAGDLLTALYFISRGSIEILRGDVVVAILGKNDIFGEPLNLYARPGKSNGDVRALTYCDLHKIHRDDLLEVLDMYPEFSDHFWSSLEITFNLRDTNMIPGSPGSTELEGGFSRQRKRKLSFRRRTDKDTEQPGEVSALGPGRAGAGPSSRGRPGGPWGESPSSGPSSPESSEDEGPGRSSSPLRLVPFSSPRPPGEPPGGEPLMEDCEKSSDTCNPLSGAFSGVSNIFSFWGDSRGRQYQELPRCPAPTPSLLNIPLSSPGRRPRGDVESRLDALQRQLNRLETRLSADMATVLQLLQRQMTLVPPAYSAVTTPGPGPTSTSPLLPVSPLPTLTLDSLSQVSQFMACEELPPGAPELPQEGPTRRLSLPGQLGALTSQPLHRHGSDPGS

First: Cc1cccc(NC(=O)c2nc[nH]c2C(=O)N2CCc3ccccc3C2)c1
Second: Cc1cccc(NC(=O)N2CCc3ccccc3C2)c1C
The “hERG current change (%, negative = inhibition) at 1uM” value of the first is lower: 10.2% for the first, 12.7% for the second.

Going from `CCC(=O)Nc1nnc(SCC(=O)Nc2ccc3c(c2)OCCO3)s1` to `COC(=O)c1ccsc1NC(=O)c1ccc2c(c1)OCCO2`, the “hERG current change (%, negative = inhibition) at 1uM” value falls from 19.8% to 8.13%.

Compared with `COC(=O)c1ccc(NC(=O)CSc2nncn2-c2cccnc2)cc1`, `CCCC(=O)Nc1ccc(C(=O)Nc2ccc([N+](=O)[O-])cc2OC)cc1` is higher in “hERG current change (%, negative = inhibition) at 1uM” value: -4.44% for the first, 13.1% for the second.

First: CSc1nc(-c2ccco2)cc(C(F)(F)F)c1C#N
Second: CNC(=O)COC(=O)c1cc(-c2ccco2)nc2ccccc12
The “hERG current change (%, negative = inhibition) at 1uM” value of the first is higher: 12% for the first, 4.53% for the second.

Compared with `Cc1ccc(C(=O)NNC(=O)c2ccc(Br)s2)cc1S(=O)(=O)N1CCOCC1`, `O=[N+]([O-])c1cccc2c(S(=O)(=O)N3CCOCC3)cccc12` is lower in “hERG current change (%, negative = inhibition) at 1uM” value: 2.22% for the first, 1.16% for the second.

Going from `Cc1ccc(C(C(=O)NC2CCCC2)N(CCCO)C(=O)Cn2nnc(-c3ccc(C)o3)n2)cc1` (stereo not shown) to `O=C(c1ccc(-c2ccc([N+](=O)[O-])cc2)o1)N1CCCCC1`, the “hERG current change (%, negative = inhibition) at 1uM” value falls from 15.5% to -10.5%.

Compared with `COc1ccc(C(NC(=O)/C=C/c2ccco2)c2ccc(OC)c(OC)c2)cc1` (stereo not shown), `COCCSc1nnc(NC(=O)Cc2ccc(OC)c(OC)c2)s1` is lower in “hERG current change (%, negative = inhibition) at 1uM” value: 3.13% for the first, 2.88% for the second.

Compared with `CCCCCOc1ccc(NC(=O)C(=O)NCCC2=CCCCC2)cc1`, `Cc1ccc(NC(=O)C2C3/C=C\CCCCC32)cc1` (stereo not shown) is higher in “hERG current change (%, negative = inhibition) at 1uM” value: 10.5% for the first, 15.7% for the second.

First: COc1ccccc1N1C(=O)CSC1=NC(=O)c1ccccc1
Second: NC(=O)c1ccccc1NC(=O)/C=C/c1ccccc1
The “hERG current change (%, negative = inhibition) at 1uM” value of the first is lower: 12.7% for the first, 19.7% for the second.

Compared with `N#Cc1ccc(C23CC4(C2)[C@H](CN(CC2CCCCC2)[C@@H]4c2ccccc2)C3c2ccccc2)cc1` (stereo partly shown), `CN(c1ccccc1)S(=O)(=O)c1ccc(NC(=O)c2ccccc2C(=O)O)cc1` is higher in “hERG current change (%, negative = inhibition) at 1uM” value: -3.77% for the first, 13.6% for the second.

Compared with `S=C(Nc1ccc(Cl)cc1)Nc1ccc2cn[nH]c2c1`, `CCCc1nc2ccc(NC(C)=O)cc2c(=O)n1Cc1ccc(Cl)cc1` is higher in “hERG current change (%, negative = inhibition) at 1uM” value: 11% for the first, 14.3% for the second.

Compared with `CN(C)CCCN(C(=O)c1ccc(Br)s1)c1nc2cc3c(cc2s1)OCO3.Cl`, `COc1ccc(CCNS(=O)(=O)CCNC(=O)c2ccc3c(c2)OCO3)cc1` is higher in “hERG current change (%, negative = inhibition) at 1uM” value: 4.06% for the first, 9.14% for the second.

Compared with `CC(CNC(=O)C(=O)NC(C)CCc1ccccc1)Cc1ccccc1` (stereo not shown), `O=C(NCC(=O)N1CC=C(c2ccccc2)CC1)c1ccco1` is lower in “hERG current change (%, negative = inhibition) at 1uM” value: 16.9% for the first, -50.9% for the second.

First: CC(C)c1ccc(C(=O)Nc2ccc(N3CCOCC3)cc2)cc1
Second: O=C(O)Cc1ccc(NC(=O)c2ccc(NC(=O)C3CC3)cc2)cc1
The “hERG current change (%, negative = inhibition) at 1uM” value of the first is higher: 6.46% for the first, 0.396% for the second.

Going from `Cc1cccc(OC(=O)c2cccnc2)c1C` to `Cc1cc(C(=O)Nc2cccc(C)c2C)n(-c2ccccc2)n1`, the “hERG current change (%, negative = inhibition) at 1uM” value rises from 10.8% to 10.9%.

Compared with `COc1cc(OC)c(OC)cc1C#N`, `COC(=O)c1cc2sccc2n1CC(=O)Nc1ccc(OC)c(OC)c1OC` is lower in “hERG current change (%, negative = inhibition) at 1uM” value: 11.1% for the first, 9.49% for the second.

Compared with `CC(C)CNC(=O)c1ccc(COc2ccc(Cl)cc2Cl)o1`, `O=C(COc1ccc(Cl)cc1)NCCSCc1ccccc1Cl` is lower in “hERG current change (%, negative = inhibition) at 1uM” value: 4.93% for the first, 2.57% for the second.

Going from `Cc1[nH]c2ccccc2c1C(=O)CN1CCCCC1C` (stereo not shown) to `COc1ccccc1C(=O)C1CCCN(C(=O)C2=CC(=O)CC(C)(C)O2)C1` (stereo not shown), the “hERG current change (%, negative = inhibition) at 1uM” value rises from 5.39% to 17.5%.

First: Cc1ccc(OC(C)C(=O)N(Cc2cccs2)C2CCS(=O)(=O)C2)cc1C (stereo not shown)
Second: Cc1ccc(-c2cc(C(=O)OCC(=O)N(C)C3CCS(=O)(=O)C3)c3ccccc3n2)c(C)c1 (stereo not shown)
The “hERG current change (%, negative = inhibition) at 1uM” value of the first is higher: 8.4% for the first, -0.925% for the second.

Compared with `CC1(c2ccc(OC(F)F)cc2)NC(=O)N(CC(=O)Nc2ccc(N3CCCCC3)cc2)C1=O` (stereo not shown), `O=C(CCN1CCN(c2ccccc2F)CC1)Nc1ccc(F)cc1` is lower in “hERG current change (%, negative = inhibition) at 1uM” value: 18% for the first, 14.4% for the second.

Going from `Cc1ccsc1C(=O)NNC(=O)c1csc(N2CCOCC2)n1` to `Cc1ccnc(NC(=O)c2ccc(S(=O)(=O)N3CCCCC3)cc2)c1`, the “hERG current change (%, negative = inhibition) at 1uM” value falls from 12.2% to 6.85%.

First: C[C@H]1C=C(C(=O)O)O[C@@H](OCc2ccc(CO)cc2)C1
Second: COC(=O)C1CCN(C(=O)Cc2ccc(Br)cc2)CC1
The “hERG current change (%, negative = inhibition) at 1uM” value of the first is lower: 7.29% for the first, 10.4% for the second.

First: Cc1cc(-c2csc(Nc3ccccn3)n2)ccc1F
Second: O=S(=O)(NCc1csc(-c2cccnc2)n1)c1ccc2c(c1)OCCO2
The “hERG current change (%, negative = inhibition) at 1uM” value of the first is higher: 11.3% for the first, 5.24% for the second.

Compared with `N=c1nc(SCCC(=O)O)ss1`, `O=C(O)CCCCCN1C(=O)/C(=C/c2ccncc2)SC1=S` is higher in “hERG current change (%, negative = inhibition) at 1uM” value: 7.25% for the first, 17.9% for the second.

Going from `CC(C)CN(C(=O)c1ccc(C(F)(F)F)cc1)c1c(N)n(CC(C)C)c(=O)[nH]c1=O` to `CCCCn1c(N)c(N(CCOC)C(=O)COc2ccc(Cl)cc2)c(=O)[nH]c1=O`, the “hERG current change (%, negative = inhibition) at 1uM” value falls from 20.2% to 19.5%.

Going from `Cc1ccc2nc(C(F)C(F)(F)F)[nH]c2c1` (stereo not shown) to `COc1ccc(S(=O)(=O)NCCc2c[nH]c3ccc(C)cc23)cc1`, the “hERG current change (%, negative = inhibition) at 1uM” value falls from 27.2% to 14.2%.

Compared with `CCCOc1ccc(/C=N/NC(=O)CN2CCCCC2)cc1OCC`, `Cc1cc(Cl)ccc1OC(C)C(=O)NN=C1CCCCCC1` (stereo not shown) is higher in “hERG current change (%, negative = inhibition) at 1uM” value: 4.6% for the first, 9.5% for the second.

Compared with `O=C(/C=C/c1cccc([N+](=O)[O-])c1)N1CCN(Cc2ccc3c(c2)OCO3)CC1`, `O=C(CN1CCN(Cc2ccc(Cl)cc2)CC1)N1CCc2ccccc21` is lower in “hERG current change (%, negative = inhibition) at 1uM” value: -20.2% for the first, -32.1% for the second.

First: COc1ccc(N(CC(=O)NCCSCc2ccc(C)cc2)S(=O)(=O)c2ccccc2)cc1
Second: CC(=O)Nc1ccc(NC(=O)CN(c2ccc(C(C)C)cc2)S(=O)(=O)c2ccccc2)cc1
The “hERG current change (%, negative = inhibition) at 1uM” value of the first is lower: 7.95% for the first, 25.3% for the second.

First: CCCCOc1cccc(OCCCC)c1C(=O)Nc1cc(C)on1
Second: COc1cc(/C=C2/C(=N)N3C=CSC3=NC2=O)ccc1OCCCOc1cc(C)ccc1C
The “hERG current change (%, negative = inhibition) at 1uM” value of the first is higher: 12.9% for the first, 9.13% for the second.

Going from `COCCn1c(N)c(N(Cc2ccccc2)C(=O)CSCC(=O)Nc2ccc(OC)cc2)c(=O)[nH]c1=O` to `COC(=O)C(NC(=O)c1ccc(OC)cc1)(Nc1ncc(S(=O)(=O)c2ccc([N+](=O)[O-])cc2)s1)C(F)(F)F` (stereo not shown), the “hERG current change (%, negative = inhibition) at 1uM” value rises from 12.4% to 13%.

Compared with `CCOC(=O)N1CCC(NC(=O)Cn2cccc2C(=O)c2ccccc2)CC1`, `CC1Oc2ccccc2C=C1C1/C(=C(/O)c2ccccc2)C(=O)C(=O)N1CCCN(C)C` (stereo not shown) is higher in “hERG current change (%, negative = inhibition) at 1uM” value: 10.7% for the first, 12.7% for the second.

Compared with `CCn1c(SCC(N)=O)nnc1-c1ccc(S(=O)(=O)N2CCN(C)CC2)cc1`, `CC(=O)c1ccc(S(=O)(=O)N2CCNCC2)cc1.Cl` is higher in “hERG current change (%, negative = inhibition) at 1uM” value: -0.273% for the first, 13.3% for the second.

First: COc1ccc(OCC(O)Cn2ccnc2C)cc1 (stereo not shown)
Second: COc1ccc(C(CNC(=O)c2oc3cc(C)c(C)cc3c2C)N2CCCCC2)cc1 (stereo not shown)
The “hERG current change (%, negative = inhibition) at 1uM” value of the first is lower: 8.31% for the first, 17% for the second.

Going from `C/C(=N\NC(=O)CCn1nnc2ccccc21)c1cccs1` to `O=C(CCn1ccnc1)Nc1nc2ccccc2[nH]1`, the “hERG current change (%, negative = inhibition) at 1uM” value falls from 13.3% to 12.7%.

First: CNC(C)C(=O)NC(C(=O)N1CCCC1C(=O)NC1CCCc2ccccc21)C(C)C.O=CO (stereo not shown)
Second: O=S(=O)(NCC1CC1)c1cccc(S(=O)(=O)N2CCCC2)c1
The “hERG current change (%, negative = inhibition) at 1uM” value of the first is lower: 13% for the first, 15.6% for the second.

First: CCOC(=O)C1C(=O)CC(C)(O)C(C(=O)OCC)C1c1ccc(NC(C)=O)cc1 (stereo not shown)
Second: CCOc1ccc(C(=O)Nc2sc3c(c2C(=O)OC)CC(C)(C)NC3(C)C)cc1
The “hERG current change (%, negative = inhibition) at 1uM” value of the first is higher: 12.5% for the first, -0.517% for the second.

Going from `N#C/C(=C\c1ccc[nH]1)C(=O)Nc1ccccc1Cl` to `Cc1cc(C)nc(SCC(=O)N/N=C\C(Br)=C\c2ccccc2)n1`, the “hERG current change (%, negative = inhibition) at 1uM” value rises from 5.32% to 17.5%.

First: COc1ccc(C2NC(=S)NC3=C2CCCC3=C2SCCS2)cc1 (stereo not shown)
Second: C=CCSc1nc2sc3c(c2c(=O)n1-c1ccccc1)CCN(C)C3
The “hERG current change (%, negative = inhibition) at 1uM” value of the first is higher: 16.2% for the first, 7.81% for the second.

First: Cc1cc(C)c(C(N)=O)c(SCC(=O)c2cc(C)c(C)cc2C)n1
Second: Cc1cc(C)c(C(=O)CC2(O)C(=O)Nc3ccccc32)cc1C (stereo not shown)
The “hERG current change (%, negative = inhibition) at 1uM” value of the first is higher: 10.8% for the first, 8.09% for the second.

Going from `Cc1c(N)c(C(C)(C)C)cc(C(C)(C)C)c1[N+](=O)[O-]` to `Cc1c(C(=O)NCc2ccc3c(c2)cc(C)n3C)cccc1[N+](=O)[O-]`, the “hERG current change (%, negative = inhibition) at 1uM” value rises from 2.67% to 9.17%.

Going from `CCC(=O)N1c2ccc(S(=O)(=O)NCc3ccco3)cc2CC1C` (stereo not shown) to `C=CCOc1cccc(C2C(C(=O)c3ccco3)=C(O)C(=O)N2Cc2ccco2)c1` (stereo not shown), the “hERG current change (%, negative = inhibition) at 1uM” value rises from -5.05% to 15%.

Going from `Cc1cccc(-n2c(=O)c(C#N)cc3c(=O)n4ccccc4nc32)c1` to `O=S(=O)(/N=C(/Nc1ccc(Cl)c(S(=O)(=O)N2CCOCC2)c1)c1ccc(F)cc1)c1ccccc1`, the “hERG current change (%, negative = inhibition) at 1uM” value falls from 2.36% to 1.79%.

First: O=C1CCC([N+](=O)[O-])C(c2cc3c(cc2Br)OCO3)N1 (stereo not shown)
Second: CC(C)N(C)Cc1cn(C)nc1-c1ccc(Oc2ccccc2)cc1
The “hERG current change (%, negative = inhibition) at 1uM” value of the first is higher: 7.57% for the first, 3.93% for the second.
